Hit rate of the full screen: of about 390,000 compounds, about 930 (0.24%) were called active. This list was built around the results that the source calls inconclusive (neither active nor inactive); the mix of calls is not that of the screen. The call rests on the fitted dose curve; in most records, active means well fitted activation curve with a large enough effect; inconclusive means small, poorly fitted or top-dose-only effect; inactive means no such curve, though single readings can be large or run the other way. Potencies beside an inconclusive call are fits to weak or partial responses and may not hold up.
Assay: qHTS for Suppressors of FUS Proteinopathy: Primary screen using FUS-linked yeast assay; further: nearly all actives have a fitted effect of over 55% in size;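 on growth rescue (activation): plate controls were DMSO vehicle for no effect and reference control for full effect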
Settings: S. cerevisiae FUS-expressing, OD600, 24 h; Potency: growth rescue; growth rescue (activation): at 76.6 µM (top of the series)
Method in brief: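 Cultures pregrown in 2.5% raffinose medium are shifted to minimal medium containing 2% galactose to express toxic FUS. Compounds are tested at several concentrations. After 24hr at 30C, growth is quantified at 600 nm absorbance.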
Potency means the concentration at half of the fitted maximal effect; tags describe the fitted curve by direction and shape.

For O=C(c1ccc(Cl)cc1)n1nc(-c2ccco2)nc1NCc1cccs1, which Potency is on record?
Its Potency is “inactive”.

Which Potency does the source give for Cc1ccc(S(=O)(=O)N2CCC(=O)N(C(COCc3cccc(Cl)c3)C(C)C)CC2)cc1 (stereo not drawn) here?
Its Potency is inconclusive: 25.1 µM [activator, single point].

For CCN(c1ccccc1)S(=O)(=O)c1ccc(NCC2COc3ccccc3O2)nc1 (stereo not drawn), which Potency is on record?
Its Potency is inconclusive: 39.8 µM [activator, single point].

With Cc1ccc(C2(C)NC(=O)N(CC(=O)N3CCN(S(=O)(=O)c4cccs4)CC3)C2=O)cc1 (stereo not drawn) as the compound, how does the Potency read?
Its Potency is inconclusive: 28.2 µM [activator, partial curve, poor fit].

Which Potency does the source give for O=C1c2ccccc2NC(c2ccc(-c3cccc(Cl)c3)o2)N1O (stereo not drawn) here?
Its Potency is inconclusive: 25.1 µM [activator, partial curve, poor fit].

For COc1ccc(NC(=O)CSc2nc3c(c(-c4cccs4)c2C#N)CN(C)CC3)cc1OC, which Potency is on record?
Its Potency is inconclusive: 31.6 µM [activator, partial curve].

For O=C(O)CCc1ccc(-c2ccccc2)n1-c1cccc(Br)c1, which Potency is on record?
The Potency was inconclusive: 50.1 µM [activator, single point].

With CC(C)(C)OC(=O)NCCCC[C@@H](C(=O)NCCCCCCCCCCC(=O)N1CCN(C(=O)OC(C)(C)C)CC1)n1cc(CCCC(=O)O)nn1 as the compound, how does the Potency read?
The Potency was inconclusive: 22.4 µM [activator, partial curve, poor fit].

With CC(C)NC(=O)N[C@@H]1C[C@@H]2O[C@H](CO)CC[C@@H]2O[C@@H]1CCc1ccc(-c2ccccc2F)cc1 as the compound, how does the Potency read?
The Potency was inconclusive: 44.7 µM [activator, single point].

Which Potency does the source give for CCOC(=O)Cn1nc(-c2ccc(F)cc2)cc(Cc2ccccc2)c1=O here?
Its Potency is inconclusive: 50.1 µM [activator, single point].

Which Potency does the source give for Cn1cc(S(=O)(=O)N2CCCCCC2)cc1C(=O)N1CCN(c2ccc(Cl)cc2)CC1 here?
The Potency was inconclusive: 50.1 µM [activator, single point].

With CCC(C)C(=O)Nc1nc(C)c(-c2csc(Nc3cc(OC)ccc3OC)n2)s1 (stereo not drawn) as the compound, how does the Potency read?
The Potency was inconclusive: 25.1 µM [activator, single point].

Which Potency does the source give for Cc1cccc(NS(=O)(=O)c2c(C)nc3scc(C)n3c2=O)c1 here?
Its Potency is “inactive”.

Which Potency does the source give for COc1ccc(CN2C(=O)[C@]3(NCCc4c3[nH]c3ccc(OC)cc43)c3cc(Br)ccc32)cc1 here?
Its Potency is inconclusive: 22.4 µM [activator, single point].

For CCOC(=O)c1c(NC(=O)c2cc(=O)c3c(C)cc(C)cc3o2)sc2c1CCC2, which Potency is on record?
The Potency was “inactive”.

Which Potency does the source give for O=C(Cc1cccc2ccccc12)Nc1nc2ccccc2[nH]1 here?
Its Potency is inconclusive: 39.8 µM [activator, partial curve, poor fit].

For Cc1ccc(CSc2nnc(-c3n[nH]c4c3CCC4)n2N)cc1, which Potency is on record?
The Potency was “inactive”.

For COc1ccc(NC(=O)N(C)C[C@H]2Oc3c(NC(=O)c4ccncc4)cccc3C(=O)N([C@H](C)CO)C[C@@H]2C)cc1, which Potency is on record?
The Potency was “inactive”.

With COc1ccc(Cl)cc1-c1cc(C(=O)NCc2cccs2)[nH]n1 as the compound, how does the Potency read?
The Potency was “inactive”.

With COc1ccccc1CNC(=O)Nc1nc(C(N)Cc2ccc(Cl)cc2)cs1 (stereo not drawn) as the compound, how does the Potency read?
The Potency was inconclusive: 39.8 µM [activator, single point].

For O=C(Nc1ccc2c(c1)OCCO2)C1C(c2ccccc2)=Nc2ccccc2N1C(=O)c1cccnc1 (stereo not drawn), which Potency is on record?
Its Potency is active: 7.94 µM.

Which Potency does the source give for CCOC(=O)c1cc(-c2ccccc2)sc1NC(=O)CC(C)C here?
Its Potency is “inactive”.

With C=CCNc1nc(NCCOc2ccccc2Cl)c2sc(-c3ccccc3)cc2n1 as the compound, how does the Potency read?
Its Potency is inconclusive: 35.5 µM [activator, single point].

With CC(=O)N1c2ccc(S(=O)(=O)NCC3CCC(C(=O)Nc4cc(C)cc(C)c4)CC3)cc2CC1C (stereo not drawn) as the compound, how does the Potency read?
Its Potency is inconclusive: 31.6 µM [activator, single point].

Which Potency does the source give for C=CCn1c(Cc2cccs2)nnc1SCC(=O)c1ccc(F)cc1 here?
Its Potency is inconclusive: 14.1 µM [activator, partial curve, poor fit].

Which Potency does the source give for COC(=O)[C@]12C[C@H](CC(=O)NCc3ccc(C)o3)C(=O)N(Cc3ccco3)C1=C[C@H](COCc1ccccc1)O[C@@H]2C here?
The Potency was inconclusive: 35.5 µM [activator, single point].

Which Potency does the source give for O=C1CC(N2CCN(Cc3ccc4c(c3)OCO4)CC2)C(=O)N1Cc1ccc(N2CCCC2=O)cc1 (stereo not drawn) here?
Its Potency is “inactive”.

With CCc1ccc(C2NC(=S)NC3=C2C(=O)N(c2ccccc2OC)C(c2ccc(CC)cc2)N3)cc1 (stereo not drawn) as the compound, how does the Potency read?
Its Potency is inconclusive: 50.1 µM [activator, partial curve, poor fit].

For COc1cccc(N2CCN(C(=O)c3c4c(nc5ccccc35)C(=O)N(C3CCCCC3)C4)CC2)c1, which Potency is on record?
Its Potency is inconclusive: 20 µM [activator, partial curve].

Which Potency does the source give for Cc1nc2ccc(NC(=O)N3CCCCC3)cc2s1 here?
The Potency was “inactive”.

With COc1cccc(NC(=O)C2CCCN2S(=O)(=O)c2ccc3nc(-c4ccccc4)[nH]c3c2)c1 (stereo not drawn) as the compound, how does the Potency read?
The Potency was inconclusive: 22.4 µM [activator, single point].

With O=C(c1ccc2c(=O)n3c(nc2c1)CCCCC3)N1CCN(c2ccc(Cl)cc2)CC1 as the compound, how does the Potency read?
The Potency was inconclusive: 28.2 µM [activator, single point].

With COc1ccc(-c2nc3sc(CCNS(=O)(=O)c4c(C)cc(C)cc4C)c(C)n3n2)cc1 as the compound, how does the Potency read?
The Potency was “inactive”.

For Cc1cc(C)c(-c2csc(NC(=O)CCCc3nc4ccccc4c(=O)[nH]3)n2)c(C)c1, which Potency is on record?
The Potency was inconclusive: 28.2 µM [activator, single point].

With Cc1cccc(C(=O)O/N=C2\CCCc3ccccc32)c1 as the compound, how does the Potency read?
Its Potency is “inactive”.

For O=C(O)CC(Sc1n[nH]c(=S)s1)C(=O)O (stereo not drawn), which Potency is on record?
The Potency was “inactive”.

With c1cnc(N2CCN(Cc3ccc4c(c3)OCO4)CC2)nc1 as the compound, how does the Potency read?
The Potency was “inactive”.

With Cc1ccc(-c2nn3c(=O)cc(CN4CCN(C(=O)c5ccc(C(C)(C)C)cc5)CC4)nc3s2)cc1 as the compound, how does the Potency read?
Its Potency is “inactive”.

For COC(=O)c1c(NC(=O)CC2SC(N)=NC2=O)sc2c1CCC(C(C)(C)C)C2 (stereo not drawn), which Potency is on record?
The Potency was inconclusive: 50.1 µM [activator, single point].

With O=C(Nc1ccc(F)cc1F)N1CCc2c(sc3c2CCCC3)C1c1ccc(F)cc1 (stereo not drawn) as the compound, how does the Potency read?
The Potency was “inactive”.

With CNC(=O)c1c(NC(=O)C2=COCCO2)sc2c1CCCC2 as the compound, how does the Potency read?
Its Potency is inconclusive: 50.1 µM [activator, single point].

Which Potency does the source give for CNC(=O)c1ccc(Nc2nnc(-c3ccc(C)c(S(=O)(=O)NCC4CCCO4)c3)c3ccccc23)cc1 (stereo not drawn) here?
Its Potency is inconclusive: 35.5 µM [activator, single point].

Which Potency does the source give for CCCOc1ccc(-c2cccc(NS(=O)(=O)c3ccc(CC)cc3)c2)nn1 here?
The Potency was inconclusive: 31.6 µM [activator, single point].

With O=C1Nc2ccccc2N=C(c2ccc3c(c2)OCO3)C1N(CCc1ccccc1)C(=O)CSc1ncccn1 (stereo not drawn) as the compound, how does the Potency read?
Its Potency is inconclusive: 35.5 µM [activator, partial curve, poor fit].

For COc1ccc(S(=O)(=O)NCCc2sc(-c3ccccc3)nc2C)cc1F, which Potency is on record?
Its Potency is “inactive”.

With O=[N+]([O-])c1ccc(C=NNC(=S)Nc2ccc(F)cc2)cc1 as the compound, how does the Potency read?
Its Potency is “inactive”.

For C1=Nc2c(Nc3ccccc3)ncnc2Oc2ccccc21, which growth rescue (activation) is on record?
The growth rescue (activation) was inconclusive: 55.3% [activator].

For CCOc1ccc(NC(=O)Cn2nnc(C(=O)NCc3ccccc3OC)c2N)cc1, which growth rescue (activation) is on record?
The growth rescue (activation) was inconclusive: 47.8% [activator].

For CC(C)(C)c1ccc(OCC(=O)N(Cc2cccs2)C2CCS(=O)(=O)C2)cc1 (stereo not drawn), which Potency is on record?
The Potency was inconclusive: 28.2 µM [activator, single point].

Which Potency does the source give for COc1ccc(C2=Cc3ccccc3C(CC(=O)C3CC3)N2c2ccc(C#CCCO)cc2)cc1 (stereo not drawn) here?
The Potency was inconclusive: 31.6 µM [activator, single point].

Which Potency does the source give for CCOC(=O)c1c(NC(=O)CSc2cn(CCNC(=O)c3c(F)cccc3F)c3ccccc23)sc2c1CCCC2 here?
Its Potency is inconclusive: 25.1 µM [activator, single point].

For CCOCCc1nn2c(=O)cc(COC(=O)c3cccc(C)c3)nc2s1, which Potency is on record?
Its Potency is inconclusive: 31.6 µM [activator, partial curve, poor fit].

For C(=N\Nc1nc(N2CCOCC2)nc(N2CCOCC2)n1)/c1cccnc1, which Potency is on record?
The Potency was “inactive”.

For O=C1N[C@@H](Cc2ccccc2)COC(=O)[C@@H](Cc2ccc(F)cc2)C/C=C\C[C@@H]1CC(=O)N(CCO)Cc1ccccc1, which Potency is on record?
Its Potency is inconclusive: 20 µM [activator, partial curve, poor fit].

Which Potency does the source give for CCCC(=O)OC12CCCN(C1)/C(=C/c1cccc(OC)c1)C2 (stereo not drawn) here?
Its Potency is “inactive”.

For N#CC1(c2nc3ccccc3[nH]2)CC1c1ccc2c(c1)OCO2 (stereo not drawn), which Potency is on record?
Its Potency is inconclusive: 22.4 µM [activator, partial curve, poor fit].

Which Potency does the source give for COc1cccc(NC(=O)Nc2nc(-c3ccc(OC)c(OC)c3)cs2)c1 here?
The Potency was inconclusive: 11.2 µM [activator, partial curve, poor fit].

Which Potency does the source give for CSc1ccc(/C=C(\C(=O)O)c2ccc(S(=O)(=O)N3CCCCC3)s2)cc1 here?
The Potency was inconclusive: 50.1 µM [activator, single point].

With C=CCSc1nnc(N2C(=O)C(O)=C(C(=O)c3ccco3)C2c2ccc(F)cc2)s1 (stereo not drawn) as the compound, how does the Potency read?
Its Potency is inconclusive: 28.2 µM [activator, single point].

For CC(=O)N1c2c(cc(Br)cc2S(=O)(=O)Nc2ccc(OC(F)(F)F)cc2)CC1C (stereo not drawn), which Potency is on record?
Its Potency is inconclusive: 35.5 µM [activator, single point].

For CCCC1=Nc2cc(C(=O)NCC(C)c3ccccc3)ccc2Sc2ccccc21 (stereo not drawn), which Potency is on record?
The Potency was “inactive”.

Which Potency does the source give for COC(=O)[C@]12C[C@H](CC(=O)NCc3ccc(C)o3)C(=O)N(Cc3cccc4ccccc34)C1=C[C@H](C1CCCC1)O[C@@H]2C here?
The Potency was active: 28.2 µM.

With COc1cc(C2CC(=O)N3CN(Cc4ccccc4)CSC3=C2C#N)ccc1OCc1ccccc1 (stereo not drawn) as the compound, how does the Potency read?
Its Potency is inconclusive: 35.5 µM [activator, single point].
